Values marked as one replicate rest on one cluster of the flow cell; about a third of the high ones do not repeat.
System: ATP
Assay: switch fluorescence ratio, 500 uM ATP over buffer (Cy3 cluster intensity, sum of 5 cycles each) (fold (ratio)); higher = stronger signal-on switching upon ATP binding; sequences stand for … in TCGTCGGCAGCGTCAGATGTGTATAAGAGACAGTTTTTTTTTTTTTTTTTTTTTTTTT…TC
Settings: aptamer strand: ATP DNA aptamer (quencher-CACCTGGGGGAGTATTGCGGAGGAAGG + anchor), 100 nM annealed; ATP concentration: 500 uM; one replicate
In short: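 Cy3-labelled switching-strand clusters on a modified Illumina MiSeq flow-cell were annealed to 100 nM quencher-labelled ATP aptamer and imaged first in selection buffer, then after 15 min with 500 uM ATP at 22 °C. NaOH stripping and re-annealing separated each of five buffer/ATP cycles, and clusters outside 100-1000 RFU were excluded. The fluorescence ratio sums target-cycle Cy3 intensity over buffer-cycle Cy3 intensity per cluster and averages it per switch-domain sequence.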
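Further: ATP exposure 15 min at 22 °C before imaging.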

Row | Sequence | switch fluorescence ratio
1 | CCTTATTAAC | 1.04
2 | TGCTCCTTTC | 1.31
3 | TCAGTCCCGC | 1.05
4 | CTCAACAGCA | 1.04
5 | GGGCCGAAAT | 1.03
6 | GGTCGCTCGA | 0.969
7 | CTCTTGGCT | 1.03
8 | GAATCTCCGA | 0.983
9 | GAATGCAATG | 1.09
10 | ATATCTCGCT | 0.976
11 | GCACTCCACA | 1.39
12 | CTCGGCCGGA | 0.964
13 | AGAAAGACGG | 0.866
14 | GACGGTATGG | 0.972
15 | TCGCCCCGGA | 1.07
16 | ATTGCATTA | 0.972
17 | CCATTCAGTA | 1.01
18 | TCAGTACCGG | 1
19 | TTGAGACCAG | 1
20 | TGTAATGCTG | 0.918
21 | GGGCAAATAG | 1.12
22 | ACTTTCGACA | 1.17
23 | CGCCTAGCTG | 0.953

Row | Sequence | switch fluorescence ratio
24 | TAAAGTTGGA | 0.936
25 | TGATAACCGG | 0.924
26 | CAGTTGCCAC | 1.05
27 | AGGAGCACTA | 1.09
28 | ATTTGGTCCA | 0.994
29 | CACTTAGAA | 1.01
30 | CACGGCTGTA | 1.03
31 | CATCGGCGCT | 1.05
32 | GTTAGAGTGC | 0.986
33 | AACTGGCACA | 1.05
34 | TCGCAACTAA | 4.12
35 | CGTTTACTTG | 1.03
36 | CGAATCTTGG | 0.975
37 | CACGACACAA | 1.55
38 | CCCTATTGAT | 0.97
39 | CCAGATTGTA | 0.984
40 | CACTATACCA | 1.43
41 | GCAAGGGGAG | 1.03
42 | CCCGGGCAAC | 1.41
43 | GATATAGGGC | 1.09
44 | CTACGCCCCG | 1.08
45 | TATCGTACGA | 1.06
46 | CAGGACAACC | 1.06

Row | Sequence | switch fluorescence ratio
47 | ACCAGCTGCA | 0.962
48 | CAGAACGGGT | 1
49 | GTCCCAGTGT | 2.32
50 | GCAATATGAG | 5.01
51 | GTCATTGGCG | 1.06
52 | CTTTAGAATA | 1.02
53 | TGGAGGGAGC | 1.01
54 | AGAAACCACC | 1.77
55 | GTGCAGTGTG | 1.02
56 | TCAAAGCATC | 1.39
57 | CTGTAAAAAT | 0.977
58 | CTCTAAGGTG | 2.02
59 | CATTATAAAT | 0.973
60 | AAAAGATCCC | 1.02
61 | TGTGGTTCAC | 1.01
62 | TATAGCTCGC | 0.96
63 | GGGTGTCCAA | 0.993
64 | CTAGTTTCAT | 1
65 | CAGAATTGGT | 1.02
66 | ACCCACATAG | 1.31
67 | TTATCTGAAC | 0.985
68 | AACCTGGCAA | 3.5
69 | TTCGCTTTCT | 1.87

Row | Sequence | switch fluorescence ratio
70 | TGACCGGCAG | 0.949
71 | TATACAGTAT | 1.08
72 | CGGCCCATGC | 1.16
73 | TGTTAATG | 0.991
74 | ACCATTTTTA | 1.05
75 | GGGTAAAACA | 0.984
76 | TATGAGTCCG | 1.21
77 | AGACTAGCGC | 0.965
78 | TGCTAGGAGA | 1
79 | GACCGGTTGC | 1.01
80 | TTCCGCGGTA | 1.67
81 | AGACTGCGAG | 0.99
82 | AGTATCGGAA | 0.989
83 | CATATTT | 0.987
84 | AACCTTGCA | 1.33
85 | AACGCGGGGT | 1
86 | ACATGGCTGT | 1.02
87 | GCTTCTATA | 0.99
88 | GATATGTCGG | 1.01
89 | TCTTCTGGTT | 1.35
90 | CAGTATATGT | 0.949
91 | GAGCTTGAGG | 0.978
92 | ATAATGAGGC | 0.933

Row | Sequence | switch fluorescence ratio
93 | ACTTACTAGG | 1.18
94 | AAAAAGCCAA | 1.04
95 | AATACGTGCT | 1.02
96 | AGTGGTATCT | 1
97 | TCTTCTCTGT | 1.15
98 | TTGGTTTGAA | 0.994
99 | CCGGGTTCAA | 1.22
100 | AAAGACGA | 1.58
101 | AATTCATATA | 0.993
102 | CGGAATTATG | 0.982
103 | TTAAGTATCA | 0.947
104 | AAGGGTTAA | 1.02
105 | CTCGCTTGGT | 1.01
106 | TAGTTTATGC | 1.07
107 | GCGCATGCTG | 1.06
108 | TACGATGGAT | 1.01
109 | AGTATTTCTA | 0.964
110 | AGCGAAGTGT | 0.988
111 | AGGCGGAGTA | 1
112 | GCTCTTTTA | 1
113 | CGCTCTAGGG | 1.03
114 | TTCACACCGT | 1.06
115 | GCCTGGAG | 0.999

Row | Sequence | switch fluorescence ratio
116 | TTCGGTTCTA | 1.01
117 | TCTTTTTCGT | 1.05
118 | TGAAAAGTGC | 1.07
119 | AATTCAGCTA | 1.04
120 | CATCCTTCCG | 2.01
121 | TAAACCCG | 1.14
122 | GATTTATTA | 0.985
123 | GAGCTTAACA | 0.978
124 | TGGCAGTCTG | 1.02
125 | CCTTAGAGG | 0.98
126 | TGGGGTCCTG | 0.981
127 | AAAAAATGCG | 1.02
128 | CGGTGTTAGG | 0.982
129 | CGCCATTGAG | 1
130 | CGGTGATGTC | 1.08
131 | GACCGAATGA | 0.984
132 | CCTATTCAAC | 1.06
133 | TGGGGTGAT | 0.982
134 | ACGGATAAAA | 1.01
135 | AAATATCGT | 0.968
136 | GCATTATCGT | 0.982
137 | CATGCGTACT | 1.08
138 | TTTGGGCTCG | 1.03

Row | Sequence | switch fluorescence ratio
139 | AGTATGAATA | 0.981
140 | GGAAGCAGAA | 0.971
141 | TTCTGATTTG | 1
142 | ATCAGTTTG | 0.968
143 | CGAGCGGGTC | 1.13
144 | CCGAGGATGT | 1.04
145 | CGGTTCGAAC | 0.972
146 | ACGCGTGAAA | 0.974
147 | TATAAGGACT | 1
148 | CACGAGGATA | 0.989
149 | TGCACGCATC | 1.48
150 | CATTACCCTT | 1.04
151 | ACGCCAGTGC | 1.19
152 | TGATTGCGG | 0.997
153 | AGGCCGCCAT | 1.03
154 | TTATATATCG | 0.968
155 | ACGTGTCCCC | 1.05
156 | GAGGATGCGT | 1.01
157 | CTGTTTCCAA | 0.984
158 | TTCCTGACCA | 1.13

— the supplement of paper PMC10126150
